This is one part of the list.
Test system: T1, Caupolican (Caup) homeodomain DNA-binding domain
T1 sequence: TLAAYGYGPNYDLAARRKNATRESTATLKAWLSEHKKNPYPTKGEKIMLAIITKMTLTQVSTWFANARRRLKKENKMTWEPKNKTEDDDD
Assay: PBM E-score (8-mer, recovered from the published 9-mer minima) (E-score (dimensionless, -0.5 to 0.5)); Drosophila protein; higher = stronger relative binding preference, active = 0.31 or more
Procedure, shortened: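 Caup's homeodomain DNA-binding domain (residues 214-303) was produced by in vitro transcription and translation and applied at 100 nM to custom-designed protein binding microarrays. Each value is an enrichment score giving relative binding preference for a short DNA word; higher means stronger. Published 9-mer scores were the minimum of their two constituent 8-mer scores, and the 8-mer values were recovered from those minima. A cutoff of 0.31 marks candidate binding sequences.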

Sequence | PBM E-score
AACTTTAC | inactive: 0.112
ATGCACCA | inactive: 0.0861
AGTCTTTC | inactive: -0.076
AACTACTC | inactive: 0.0777
CCTCGGGA | inactive: -0.15
CACTCGGC | inactive: -0.125
GCTTCTCA | inactive: -0.139
CCGGTAGG | inactive: -0.158
ACGCCTGG | inactive: -0.081
GTTTTTTA | inactive: 0.104
CGACCCGC | inactive: -0.237
CCATATCA | inactive: 0.0253
AGCTTCAT | inactive: -0.0395
GTACCACA | inactive: 0.177
CGGGCAAC | inactive: -0.149
CATAATAG | inactive: 0.129
ACGACCGC | inactive: -0.154
CCCCTTGC | inactive: -0.183
CAGTGGCC | inactive: -0.219
CTCCTGTA | inactive: 0.0941
CAAATAGC | inactive: 0.0222
CGCAAACA | ≥ 0.224
CTTATAAA | inactive: 0.0297

Sequence | PBM E-score
TCAGAAGA | inactive: -0.0667
ATGGCTGC | inactive: -0.044
GTCTAGTA | inactive: 0.169
CCTAATAC | inactive: 0.0815
ACGGAACG | inactive: 0.00712
ACTAGTTA | inactive: 0.118
CATCCACG | inactive: 0.0304
CAATCGTG | inactive: 0.0797
CCGGGGCG | inactive: -0.349
ATTCTTTA | inactive: 0.113
GCCATGCA | inactive: -0.0297
GCCGTAAA | inactive: -0.0841
TATCCGGA | inactive: -0.0225
CCACAACG | inactive: -0.15
AGATGACA | inactive: 0.227
TCATCTAA | inactive: -0.0247
GGAGAAAA | inactive: -0.0683
AGTCATAA | inactive: 0.146
CTGGGAAA | inactive: -0.0784
CAGAGCTG | inactive: -0.0267
AATCAGAC | inactive: 0.112
CACCGTCA | inactive: -0.136
GTATCTCA | inactive: 0.125

Sequence | PBM E-score
GCGCGCTA | ≥ -0.0022
AGATTGCG | inactive: -0.0689
AAGGTCGA | inactive: 0.012
GGTAGTAA | inactive: 0.115
GGTCGAAC | inactive: 0.0473
GGATCAGA | inactive: -0.024
AATACCAA | inactive: 0.118
GATTAAGA | inactive: 0.0784
AACTAATC | inactive: 0.116
CGGCACCA | inactive: -0.123
GAGACGGC | inactive: -0.143
CTATGTAC | active: 0.381
AACTGACA | inactive: 0.229
GAAGCTTA | inactive: -0.0166
AATATATC | inactive: 0.172
ATTACCAC | inactive: 0.144
AGGAAAAT | inactive: 0.00243
TCTTTTCA | inactive: -0.0323
GAACGGTC | inactive: -0.153
ACGCTCCC | inactive: -0.0801
AAGCCATA | inactive: 0.0203
GGCTTTAC | inactive: -0.00926
ACCGGAGT | inactive: -0.106

Sequence | PBM E-score
GTGTACAA | active: 0.396
GACCACTA | inactive: 0.0147
CTCTATGA | inactive: -0.0639
AGGAGAAA | inactive: 0.0158
AATAGACA | inactive: 0.296
AAATTGCG | inactive: 0.00698
GAATAACA | inactive: 0.301
CTCTTAGC | inactive: -0.113
ATGAACTC | inactive: -0.0241
ATCAGTCA | ≥ 0.114
CAGTGCCA | inactive: -0.127
ATCTAGAT | inactive: 0.0185
ACAAGTCC | inactive: 0.229
AGGTTTGG | inactive: -0.107
GAAGGGTC | inactive: -0.17
GCCCTTAA | inactive: -0.119
AGATAGTA | inactive: 0.155
GGGAGCCA | inactive: -0.294
CGACATCA | inactive: 0.284
AGCGGCGC | inactive: -0.208
AAAGCCGG | inactive: -0.127
CACTCGTC | inactive: -0.0183
AGACATAT | inactive: 0.264

Sequence | PBM E-score
GTGATCCA | inactive: -0.0252
GAACTACA | active: 0.314
ACAAGTCT | inactive: 0.296
TATCGACA | inactive: 0.142
ATAAGTTC | inactive: 0.107
CCCGACGG | inactive: -0.206
CATCACAA | inactive: 0.178
TATCGCCA | inactive: -0.0216
AGCGGTCC | inactive: -0.13
AATGCCTG | inactive: -0.0623
TACGTGAA | inactive: 0.0545
CTAAGGGA | inactive: -0.0661
CTACTCAG | inactive: -0.0389
GCGGCCTA | inactive: -0.275
AAAATTAA | inactive: 0.0601
CTTTCACA | inactive: 0.0496
AACAAGAG | inactive: 0.243
CATGCCAC | inactive: 0.0331
CACGTAAC | inactive: 0.057
AGTATGTG | inactive: 0.159
GCCGCTAC | inactive: -0.24
